Source: paper PMC4336329 (PLoS ONE, 2015)
Hit rate of the full screen: of about 310,000 compounds, about 2,200 (0.71%) showed an effect of 50% or more. Effects have a minus sign here. Some of the results follow.

target: human ether-à-go-go-related gene (hERG) potassium channel (human, UniProt Q12809); assay: primary screen, population patch clamp on CHO cells stably expressing hERG
Sequence (Q12809 whole entry, looked up): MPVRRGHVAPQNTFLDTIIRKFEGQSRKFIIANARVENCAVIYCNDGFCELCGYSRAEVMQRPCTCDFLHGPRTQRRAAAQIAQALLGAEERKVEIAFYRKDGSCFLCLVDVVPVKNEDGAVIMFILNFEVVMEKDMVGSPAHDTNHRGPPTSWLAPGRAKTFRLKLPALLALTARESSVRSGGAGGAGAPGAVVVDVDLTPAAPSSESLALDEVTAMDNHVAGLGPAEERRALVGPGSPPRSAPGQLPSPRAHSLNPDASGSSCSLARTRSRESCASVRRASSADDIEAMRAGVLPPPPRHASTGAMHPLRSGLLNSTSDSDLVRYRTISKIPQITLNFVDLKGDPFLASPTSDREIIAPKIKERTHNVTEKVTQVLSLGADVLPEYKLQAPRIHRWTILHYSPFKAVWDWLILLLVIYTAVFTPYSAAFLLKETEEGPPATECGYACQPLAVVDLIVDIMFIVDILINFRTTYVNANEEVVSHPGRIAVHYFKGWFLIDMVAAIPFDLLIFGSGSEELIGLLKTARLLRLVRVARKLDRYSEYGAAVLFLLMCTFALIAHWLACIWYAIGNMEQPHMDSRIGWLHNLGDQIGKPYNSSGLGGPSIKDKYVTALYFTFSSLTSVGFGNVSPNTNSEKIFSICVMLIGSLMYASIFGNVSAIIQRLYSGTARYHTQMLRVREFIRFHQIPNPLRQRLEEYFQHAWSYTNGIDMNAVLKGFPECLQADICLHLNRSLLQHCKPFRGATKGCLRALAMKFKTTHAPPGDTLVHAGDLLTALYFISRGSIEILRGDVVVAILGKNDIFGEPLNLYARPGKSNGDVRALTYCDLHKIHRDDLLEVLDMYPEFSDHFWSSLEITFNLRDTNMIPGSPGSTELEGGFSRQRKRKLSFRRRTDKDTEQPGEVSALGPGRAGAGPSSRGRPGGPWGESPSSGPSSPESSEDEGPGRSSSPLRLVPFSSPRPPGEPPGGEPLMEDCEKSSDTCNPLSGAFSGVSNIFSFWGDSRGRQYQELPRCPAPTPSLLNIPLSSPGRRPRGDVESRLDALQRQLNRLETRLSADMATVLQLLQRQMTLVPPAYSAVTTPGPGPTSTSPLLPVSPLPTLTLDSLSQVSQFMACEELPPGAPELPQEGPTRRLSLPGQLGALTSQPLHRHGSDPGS

SMILES | hERG current change (%, negative = inhibition) at 1uM
O=C(CSc1ccc([N+](=O)[O-])cc1)Nc1cccc(S(=O)(=O)Nc2ccccc2F)c1 | -10.3%
COc1ccc(C)cc1NC(=O)CN1C(=O)c2cccc3cccc1c23 | 13.9%
CN(Cc1ccno1)Cc1cn(C)nc1-c1ccc(Oc2ccccc2)cc1 | 8.21%
CCCCN(C)CCC(=O)Nc1ccc(F)c(F)c1.Cl | 9.37%
CC/C(CC(C)(C)c1ccccc1)=N\O | 2.48%
COc1ccc(Br)cc1CNc1ccc2[nH]c(=O)[nH]c2c1 | 11.6%
O=C(CSc1ccccn1)NC1CCCC1 | 15.8%
CC(=O)c1c(C)[nH]c(C(=O)N2CCC3(CC2)OCCO3)c1C | 18.8%
Cc1scc(C(=O)NNC(=S)NC(C)c2ccccc2)c1C (stereo not shown) | 6.56%
O=c1nc(/C=C/c2ccccc2C(F)(F)F)cc(C(F)(F)F)[nH]1 | 14.9%
Cc1c2cnn(-c3ccccc3)c(=O)c2c(C)n1CCCC(=O)N1CCN(C2CCCCC2)CC1 | 1.08%
Cc1c(N=Cc2c(O)n(Cc3ccccc3)c(=O)[nH]c2=O)c(=O)n(-c2ccccc2)n1C | 12.4%
CN(C)/C=N/c1ncc(C(=O)c2ccc(-c3ccccc3)cc2)s1 | 5.65%
COCCN(Cc1ccccc1)C(=O)c1cccc(S(=O)(=O)N2CCN(c3ccc(F)cc3)CC2)c1 | -5.5%
CN(C)S(=O)(=O)c1cccc(NC(=O)COC(=O)c2cccc(S(=O)(=O)N3CCc4ccccc4C3)c2)c1 | 5.93%
CS(=O)(=O)c1ccc(CNC(=O)C2(C(F)(F)F)C/C(=C\Cc3ccccc3)CCCO2)cc1 (stereo not shown) | 7.41%
S=C(NCc1cccnc1)Nc1cccc(Cl)c1 | 0.891%
COc1ccccc1C(=O)C1CCCN(C(=O)c2cnn(C(C)C)c2)C1 (stereo not shown) | 14.4%
O=C(Nc1ccccc1O)c1cccc(S(=O)(=O)N2CCOCC2)c1 | 10.3%
Cc1ccc2c(cnn2C(=O)CCCC(=O)NCc2ccc(Cl)cc2)c1 | 3.59%
COc1cccc(Nc2nc(-c3ccccc3O)nc3ccccc23)c1 | 19.4%
Cn1nnnc1SCCNC(=O)C1CCC(=O)N(CCc2ccccc2)C1 (stereo not shown) | 9.14%
COc1ccc(Cl)cc1C(=O)Nc1ccc(Br)c(C)n1 | 10.1%
Cc1cccc2c1N(C(=O)CN1C(=O)c3ccccc3C1=O)C(C)(C)c1ssc(=S)c1-2 | 22.1%
COc1ccc(-c2cc(=O)oc3c(C)c(OC(C)C(=O)Nc4ccc(CN5CCOCC5)cc4)ccc23)cc1 (stereo not shown) | 6.47%
CCOC(=O)N1CCN(S(=O)(=O)c2ccc(Br)s2)CC1 | 4.21%
CC1(c2nnc(-c3ccc(F)cc3)o2)CC(c2ccncc2)=NO1 (stereo not shown) | 8.25%
COc1cccc(-c2cc(C(F)(F)F)c(C#N)c(=O)[nH]2)c1 | 5.54%

SMILES | hERG current change (%, negative = inhibition) at 1uM
CCOC(=O)/C(C(N)=NCCO)=C(/O)c1ccccc1 | 7.92%
COc1ccc(CN(Cc2cccn2C)S(=O)(=O)c2ccc(F)cc2)cc1 | 7.76%
CCOP(=O)(OCC)/C(=N/OC(=O)c1ccccc1C)C(N)=O | 7.21%
CCOC(=O)CN1C(=O)COc2ccc(Cl)cc21 | 13.2%
CCOCC(=O)Nc1ccccc1C(=O)N1CCOCC1 | 12.4%
CCOc1ccc2[nH]c(=O)c(CN(CCO)Cc3nnnn3CCc3ccccc3)cc2c1 | -15.8%
O=C(Nc1cc(S(=O)(=O)N2CCOCC2)ccc1N1CCOCC1)c1cc2c(s1)CCC2 | 6.01%
O=C(O)C1C2C=CC3(CN(CC(O)COc4ccccc4)C(=O)C13)O2 (stereo not shown) | 12.3%
CCOC(=O)N1CCC(N2C(=O)c3ccc(C(=O)NCc4ccco4)cc3C2=O)CC1 | 3.56%
O=C(CSc1nc(-c2ccc(Cl)cc2)cs1)Nc1cccc([N+](=O)[O-])c1 | 11.8%
O=C(O)c1cccnc1Sc1ccccc1Cl | 14.4%
COC(=O)C(=O)C/C(=N/Nc1ncnc2ccccc12)c1ccc(Cl)cc1 | -0.965%
Cc1ccc(S(=O)(=O)N2CCOCC2)cc1C(=O)Nc1ccc2c(c1)CCC2 | 5.95%
Cc1c(C(c2ccccc2O)c2c(C)n(C)n(-c3ccccc3)c2=O)c(=O)n(-c2ccccc2)n1C | 3.29%
CC1CCCCC12NC(=O)N(CC(=O)N1CCc3ccccc31)C2=O (stereo not shown) | 8%
CC(=O)Oc1cc2c3c(c1)/C(=C1/SC(=S)NC1=O)C(=O)N3C(C)(C)C=C2C | 25%
COc1cc(OC)cc(C(=O)Nc2ccc(N(C)C)c3ccccc23)c1 | 16%
O=[N+]([O-])c1cccnc1Oc1cccnc1 | 20.7%
Cc1ncoc1C(=O)N1CCCC(C(=O)c2cccc(OC(C)C)c2)C1 (stereo not shown) | 6.56%
COc1ccc(S(=O)(=O)N2CCN(C(=O)c3c(-c4ccccc4)noc3C)CC2)cc1 | -0.297%
Cn1c(=O)n(CCOc2ccc(Cl)cc2Cl)c2ccccc21 | -0.208%
Cc1nn(CC(=O)N2CCOCC2)c(=O)c2nn(-c3ccccc3)c(C)c12 | 16.5%
O=C(OCC(=O)N1CCN(C(=O)c2ccco2)CC1)c1cccc(S(=O)(=O)N2CCc3ccccc32)c1 | -3.96%
O=C(Nc1cccc2ncccc12)C(Cl)(Cl)Cl | 4.09%
Cc1cc(NC(=O)C(=O)NCCN2CCN(C(=O)c3cccs3)CC2)ccc1Br | -37%
COC(=O)c1cc(C(=O)CC(C)C)c[nH]1 | 2.96%
COc1ccc(CNC(=O)C2CC(c3cccc([N+](=O)[O-])c3)=NO2)cc1 (stereo not shown) | 5.46%
